We go through one molecule from patent US20190031783A1 (AbbVie / Abbott, published 2019).

The assay deals with T1, mouse DLL4 extracellular domain (mouse, UniProt Q9JI71 27-532).
T1 construct: extracellular domain; also called mouse DLL4530
Description: SPR (Biacore), DVD captured via anti-human Fc, mouse DLL4 injected. How it is done: For DLL4 binding kinetic measurements the assay buffer was HBS-EPB: 10 mM Hepes, pH7.5, 150 mM NaCl, 3 mM EDTA, 0.005% Tween 20, 0.1 mg/ml BSA (Sigma A7906). For VEGF binding kinetic measurements the assay buffer was HBS-EP+(3N01B): 10 mM Hepes, pH7.5, 300 mM NaCl, 3 mM EDTA, 0.05% Tween 20, 0.1 mg/ml BSA (Sigma A7906). For example, approximately 9000 RU of goat anti-human Fc specific polyclonal antibody (Thermo Fisher Scientific Inc., Rockford, Ill.) diluted in 10 mM sodium acetate (pH 4.5) is directly immobilized across a CM5 research grade biosensor chip using a standard amine coupling kit according to manufacturer's instructions and procedures at 25 ug/ml. Unreacted moieties on the biosensor surface are blocked with ethanolamine. For kinetic analysis, rate equations derived from the 1:1 Langmuir binding model are fitted simultaneously to multiple antigen injections (using global fit analysis) with the use of Scrubber 2 (BioLogic Software), Biacore Biaevaluation 4.0.1 software or Biacore T100 Evaluation software. […] The equilibrium dissociation constant KD (M) of the reaction between antibodies and the target antigen is then calculated from the kinetic rate constants by the following formula: KD=Koff/Kₒₙ. Binding is recorded as a function of time and kinetic rate constants are calculated.

T1 sequence (Q9JI71 27-532): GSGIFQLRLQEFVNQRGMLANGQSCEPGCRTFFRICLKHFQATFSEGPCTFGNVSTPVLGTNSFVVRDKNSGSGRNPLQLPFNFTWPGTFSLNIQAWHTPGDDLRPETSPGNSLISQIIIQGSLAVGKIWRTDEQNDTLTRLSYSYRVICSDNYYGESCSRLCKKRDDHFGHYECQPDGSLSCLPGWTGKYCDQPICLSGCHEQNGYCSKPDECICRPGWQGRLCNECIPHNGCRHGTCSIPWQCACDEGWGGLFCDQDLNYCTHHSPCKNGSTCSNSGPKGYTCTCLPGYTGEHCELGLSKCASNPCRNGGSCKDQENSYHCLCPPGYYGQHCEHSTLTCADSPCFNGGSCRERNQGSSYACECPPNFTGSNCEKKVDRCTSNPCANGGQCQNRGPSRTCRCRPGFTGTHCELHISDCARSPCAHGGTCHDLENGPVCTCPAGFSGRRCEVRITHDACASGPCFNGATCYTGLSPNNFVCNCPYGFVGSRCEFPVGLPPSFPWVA

B1: h1A11.1-SL-Av (bispecific antibody, human IgG1, kappa)
heavy: EVQLVESGGGLVQPGGSLRLSCAASGFTFSNFPMAWVRQAPGKGLEWVATISSSDGTTYYRDSVKGRFTISRDNAKNSLYLQMNSLRAEDTAVYYCARGYYNSPFAYWGQGTLVTVSSASTKGPEVQLVESGGGLVQPGGSLRLSCAASGYTFTNYGMNWVRQAPGKGLEWVGWINTYTGEPTYAADFKRRFTFSLDTSKSTAYLQMNSLRAEDTAVYYCAKYPHYYGSSHWYFDVWGQGTLVTVSSASTKGPSVFPLAPSSKSTSGGTAALGCLVKDYFPEPVTVSWNSGALTSGVHTFPAVLQSSGLYSLSSVVTVPSSSLGTQTYICNVNHKPSNTKVDKKV[omitted - human IgG1 Fc with changes]
light: DIQMTQSPSSLSASVGDRVTITCRASEDIYSNLAWYQQKPGKAPKLLIYDTNNLADGVPSRFSGSGSGTDFTLTISSLQPEDFATYYCQQYNNYPPTFGQGTKLEIKRTVAAPSVFIFPPDIQMTQSPSSLSASVGDRVTITCSASQDISNYLNWYQQKPGKAPKVLIYFTSSLHSGVPSRFSGSGSGTDFTLTISSLQPEDFATYYCQQYSTVPWTFGQGTKVEIKRTVAAPSVFIFPPSDEQLKSGTASVVCLLNNFYPREAKVQWKVDNALQSGNSQESVTEQDSKDSTYSLSSTLTLSKADYEKHKVYACEVTHQGLSSPVTKSFNRGEC
notes: DVD-Ig; also called h1A11.1-SL-Av DVD; DVD Ig
For the molecule B1, the Kd was determined as 24 nM.
